In patent publication US11155596B2, “Polypeptide” (AFFIBODY AB, priority 2016, dated 2021):

How the values were obtained:
hPD-L1 [1] = target: T1, hPD-L1 (Homo sapiens, UniProt Q9NZQ7); test: ELISA screening of Z variants; assay type: binding; conditions: Example 5 screening; hPD-L1 40 pM; negative controls 0.051 AU
Description: ELISA screening of Z variants: The binding of Z variants to hPD-L1 was analyzed in ELISA assays. Half-area 96-well ELISA plates (Costar, cat. no. 3690) were coated at 4° C. overnight with 2 μg/ml of an anti-ABD goat antibody (produced in-house) diluted in coating buffer (50 mM sodium carbonate, pH 9.6; Sigma, cat. no. C3041). The antibody solution was poured off and the wells were washed in water and blocked with 100 μl of PBSC (PBS supplemented with 0.5% casein; Sigma, cat. no. C8654) for 1 to 3 h at RT. The blocking solution was discarded and 50 μl periplasmic solutions, diluted 1:1 with PBST 0.05%, were added to the wells and incubated for 1.5 to 2.5 h at RT under slow agitation. As a blank control, PBST 0.05% was added instead of a periplasmic sample. The supernatants were poured off and the wells were washed 4 times with PBST 0.05%. Then, 50 μl of biotinylated hPD-L1 at a concentration of 0.32 nM in PBSC was added to each well. The plates were incubated for 1 h at RT followed by washes as described above. […] The absorbance at 450 nm was measured using a multi-well plate reader, Victor^3 (Perkin Elmer).
ELISA screening of Z variants: The binding of Z variants to human PD-L1 was analyzed in ELISA assays as described previously in Example 1 with the following exceptions. […]

hPD-L1 binding to hPD-1 = target: T2, hPD-L1 binding to hPD-1 (Homo sapiens, UniProt Q9NZQ7); test: AlphaLISA blocking assay (Example 7); conditions: His6-tagged Z variants 250 nM to 4 pM; 8 nM biotinylated hPD-L1; read-out: IC50 AlphaLISA (M), blocking the PD-1/PD-L1 interaction
T2 construct: 1086-PD-050 (hPD-1)
T2 sequence (Q9NZQ7 19-239 limits assumed): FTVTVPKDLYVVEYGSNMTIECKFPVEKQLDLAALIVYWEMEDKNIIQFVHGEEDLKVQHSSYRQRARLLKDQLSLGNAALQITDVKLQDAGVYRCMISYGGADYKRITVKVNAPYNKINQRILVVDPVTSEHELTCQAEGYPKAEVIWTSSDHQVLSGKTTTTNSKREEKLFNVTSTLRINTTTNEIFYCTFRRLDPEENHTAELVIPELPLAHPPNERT
Description: AlphaLISA blocking assay: The potential of Z variants to inhibit binding of PD-L1 to PD-1 was analyzed by AlphaLISA and recordings in an EnSpire multiplate reader 2300 (Perkin Elmer). hPD-1 (human PD-1 Fc-chimera; R&D Systems, cat. no. 1086-PD-050) was immobilized on AlphaLISA Acceptor beads (Perkin Elmer, cat. no. 6772002) according to the manufacturer's recommendations. […] Finally, streptavidin coated Donor beads (Perkin Elmer, cat. no. 6772002) were added to a final concentration of 40 μg/ml and incubated for 30 min. All incubations were performed at RT in the dark. The plate was analyzed in the EnSpire instrument and the IC50 values were calculated using GraphPad Prism 5.
Exception 2: hPD-1-coated Acceptor beads were added to a final concentration of 10 μg/ml and incubated for 50 min.

hPD-L1 [2] = target: T1, hPD-L1; test: Biacore kinetic analysis of primary Z variants, hPD-L1; assay type: binding; conditions: His6-tagged Z variants over immobilized hPD-L1; 1:1 model
Description: Biacore kinetic and specificity analysis: Kinetic constants (ka and kd) and affinities (KD) for hPD-L1 were determined for 14 Hiss-tagged Z variants using a Biacore 2000 instrument (GE Healthcare). Some of the Z variants were also tested for binding against the sequence-related proteins hPD-L2, hB7-H3, hB7-H4 and mPD-L1 (mouse PD-L1 Fc Chimera, R&D Systems, cat. no. 1019-B7).
hPD-L1, hPD-L2, hB7-H3, hB7-H4 and mPD-L1 were immobilized in separate flow cells on the carboxylated dextran layer of different CM5 chip surfaces (GE Healthcare, cat. no. BR100012). The immobilization was performed using amine coupling chemistry according to the manufacturer's protocol and using HBS-EP as running buffer (0.01 M HEPES pH 7.4, 0.15 M NaCl, 3 mM EDTA, 0.005% v/v Surfactant P20, GE Healthcare, cat. no. BR100188). […] One flow cell surface on each chip was activated and deactivated for use as blank during analyte injections. In the kinetic experiment, HBS-EP was used as running buffer and the flow rate was 50 μl/min. The analytes, i.e. the Z variants, were each diluted in HBS-EP buffer within a concentration range of 1000 to 0.01 nM and injected for 5 min, followed by dissociation in running buffer for 15-25 min. After dissociation, the surfaces were regenerated with one or two injections of 0.1% SDS. Kinetic constants were calculated from the sensorgrams using the Langmuir 1:1 model of BiaEvaluation software 4.1 (GE Healthcare).

T1 sequence (Q9NZQ7 19-290): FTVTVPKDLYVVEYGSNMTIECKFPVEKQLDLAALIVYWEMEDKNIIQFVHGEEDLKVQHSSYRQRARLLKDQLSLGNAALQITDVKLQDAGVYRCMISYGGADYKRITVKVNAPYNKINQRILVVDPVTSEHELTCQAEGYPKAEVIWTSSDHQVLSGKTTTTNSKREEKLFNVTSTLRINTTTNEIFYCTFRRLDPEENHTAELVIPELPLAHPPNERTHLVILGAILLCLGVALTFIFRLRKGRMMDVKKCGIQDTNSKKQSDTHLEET

Row | Substance | ELISA response against hPD-L1 (hPD-L1 [1]) [AU] | IC50 (hPD-L1 binding to hPD-1) [M] | Kd (hPD-L1 [2]) [nM] | ka (hPD-L1 [2]) [M⁻¹ s⁻¹] | kd (hPD-L1 [2]) [s⁻¹]
1 | Z13091: primary PD-L1 binding Z variant (VDAKYAKERNNAAFEILRLPNLTNGQHWAFIWKLADDPSQSSELLSEAKKLNDSQAPK; Engineered PD-L1 binding polypeptide) | 0.264 | 1.1e-09 |  |  | 
2 | Z13156: primary PD-L1 binding Z variant (VDAKYAKERNQAAVEILQLPNLTAAQYWAFIWKLDDDPSQSSELLSEAKKLNDSQAPK; Engineered PD-L1 binding polypeptide) |  |  | 1.5 | 1.7e+06 | 0.0025
